Assay results published in PubChem BioAssay AID624417 (National Center for Advancing Translational Sciences (NCATS), 2012).
Hit rate of the full screen: of about 410,000 compounds, about 6,400 (1.6%) were called active. Inconclusive results, whose numbers are uncertain, are shown with a selection of clear calls. The call rests on the fitted dose curve; in most records, active means well fitted inhibition curve with a large enough effect; inconclusive means small, poorly fitted or top-dose-only effect; inactive means no such curve, though single readings can be large or run the other way. A potency beside an inconclusive call is a rough fit, not a confirmed value.

Molecular target: Glucagon-like peptide 1 receptor (Homo sapiens) (UniProt P43220)
Test: qHTS of GLP-1 Receptor Inverse Agonists (Inhibition Mode); further: nearly all actives have a fitted effect of over 55% in size
Conditions: HEK293 GLP-1R CRE-luciferase, luminescence, 24 h, GLP-1R form is constitutively active; activity change, negative = inhibition: at 38.3 µM (top of the series) unless noted
How it was run: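 Cells are plated, allowed 12 hours at 37 deg C, then treated with compounds for 24 hr before luciferase detection reagent is added and luminescence is read after 12 min at room temperature. The HEK293 line carries constitutively active GLP-1R with a cAMP-responsive reporter.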
On the % scale 0 is the no-effect control and ±100 the full control effect; potency means the concentration at half of the fitted maximal effect; tags describe the fitted curve by direction and shape.

Sequence of UniProt P43220 (P43220 whole entry, looked up): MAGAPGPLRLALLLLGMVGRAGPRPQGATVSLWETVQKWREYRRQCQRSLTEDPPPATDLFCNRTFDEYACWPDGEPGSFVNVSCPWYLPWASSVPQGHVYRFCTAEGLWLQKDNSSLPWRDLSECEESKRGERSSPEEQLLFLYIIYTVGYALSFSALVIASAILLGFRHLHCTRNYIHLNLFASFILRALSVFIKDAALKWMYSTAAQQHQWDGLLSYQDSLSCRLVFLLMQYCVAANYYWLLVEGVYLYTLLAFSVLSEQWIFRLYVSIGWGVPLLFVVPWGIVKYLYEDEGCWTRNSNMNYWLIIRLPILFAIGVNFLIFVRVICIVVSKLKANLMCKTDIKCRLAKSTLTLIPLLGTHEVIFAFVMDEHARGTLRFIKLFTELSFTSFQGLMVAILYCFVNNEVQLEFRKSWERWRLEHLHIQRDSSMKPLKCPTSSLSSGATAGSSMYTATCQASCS

Potency, active:
COc1cccc(-c2csc(N3CCN(CC(=O)NNC(=O)c4ccc(Br)cc4)CC3)n2)c1 11.2 µM
CCC(C)(C)n1nnnc1CN1CCN(C(c2ccccc2)c2ccccc2)CC1 10 µM
CC(C)(C)n1ncc2c(=O)n(Cc3c(F)cccc3Cl)cnc21 2.51 µM
CCOc1ccc(C(C)=O)cc1COC(=O)CNC(=O)C12CC3CC(CC(C3)C1)C2 3.55 µM

Potency, inconclusive:
Cc1cc(C(=O)CCl)c(C)n1-c1c(C)n(C)n(-c2ccccc2)c1=O 31.6 µM [inhibitor, partial curve, poor fit]
COc1cccc(C(C)(O)c2nc(-c3ccc(F)c(Cl)c3)cs2)c1 (stereo unspecified) 28.2 µM [inhibitor, single point]
CCN1C(=O)/C(=C/N2CC(C)CC(C)C2)SC1=S (stereo unspecified) 2 µM [inhibitor, partial curve, poor fit]
CCOc1ccc(OCC)c(NC(=O)CCNS(=O)(=O)c2cc(Br)cnc2N)c1 14.1 µM [inhibitor, single point]
Cc1nc([N+](=O)[O-])c(Br)n1Cc1ccccc1 12.6 µM [inhibitor, single point]
Cc1ccc(SCCNC(=O)/C=C/c2cccc([N+](=O)[O-])c2)cc1 28.2 µM [inhibitor, single point]
Cc1cc(N/N=C/c2ccccc2Br)nc2ccccc12 28.2 µM [inhibitor, single point]
COc1cccc(C(C)(O)c2nc(-c3cc(F)cc(F)c3)cs2)c1 (stereo unspecified) 12.6 µM [inhibitor, single point]
C=CCN(c1ccc(F)cc1)S(=O)(=O)c1cc(C(=O)NC2CC2)ccc1Cl 12.6 µM [inhibitor, partial curve, poor fit]
O=C(CN1CCN(C/C=C/c2ccccc2)CC1)Nc1cc([N+](=O)[O-])ccc1Cl 3.16 µM [inhibitor, partial curve, poor fit]
Cc1cc(O)c(C(c2ccccc2)N2CCN(c3ccc(F)cc3)CC2)c(=O)n1Cc1ccco1 (stereo unspecified) 11.2 µM [inhibitor, partial curve, poor fit]
CN1CCN(C2=C(Cl)C(=O)N(c3ccc(Cl)cc3)C2=O)CC1 28.2 µM [inhibitor, partial curve, poor fit]
COc1ccc(/C=C/C(=O)Nc2ccccc2F)cc1S(=O)(=O)N1CCOCC1 2 µM [inhibitor, partial curve, poor fit]
CNC(=S)N=Nc1c(O)[nH]c2ccc(C(C)C)cc12 10 µM [inhibitor, single point]
O=C(CC1C(=O)NCCN1C(=O)Nc1ccc(F)cc1)Nc1ccc(F)cc1 (stereo unspecified) 11.2 µM [inhibitor, partial curve, poor fit]
O=C(NC(=S)N1CCCCC1)C12CC3CC(CC(C3)C1)C2 7.94 µM [inhibitor, partial curve, poor fit]
Nc1nc(-c2ccc(Br)s2)c(Br)s1 12.6 µM [inhibitor, single point]
Cc1ccc2occ(CC(=O)N(Cc3ccc(Cl)cc3)Cc3ccco3)c2c1 12.6 µM [inhibitor, single point]
COc1cc(C2CC(=O)Nc3ccc4ccccc4c32)ccc1OC(=O)C(C)C (stereo unspecified) 31.6 µM [inhibitor, single point]
CC1(C(=O)Nc2ccc3c(c2)OCCO3)CCN1C(=O)C1(c2ccc(Cl)cc2)CCC1 (stereo unspecified) 8.91 µM [inhibitor, partial curve, poor fit]
CCO[C@H]1OC(C(=O)N2CCN(Cc3ccc4c(c3)OCO4)CC2)=C[C@@H](c2ccc(C(F)(F)F)cc2)[C@@H]1CCCO 12.6 µM [inhibitor, partial curve, poor fit]
CCCCNC(=O)C[C@@H]1C[C@@]2(C(=O)OCC)CCC=C2N(Cc2cccc3ccccc23)C1=O 15.8 µM [inhibitor, single point]
O=C1c2ccccc2/C(=C\c2ccc(Br)s2)N1c1ccccc1 12.6 µM [inhibitor, single point]
CCN1CCN(C(=O)c2ccc(CNS(=O)(=O)c3cccc(OC)c3)cc2)CC1 0.891 µM [inhibitor, full curve, poor fit]
CCc1cccc(NC(=O)Nc2ccc3c(c2)OCO3)c1 2 µM [inhibitor, partial curve, poor fit]
CC(C)(C)NC(=O)CCCSc1nc2ccccc2s1 28.2 µM [inhibitor, single point]
CCOC(=O)c1cc(-c2sc(NC(=O)c3ccccc3)nc2C)n(Cc2ccccc2)n1 28.2 µM [inhibitor, single point]
O=C(/C=C/NNC(=O)c1ccc(Br)cc1)c1ccccc1 14.1 µM [inhibitor, partial curve, poor fit]
O=[N+]([O-])c1ccc(NC2CCN(Cc3ccccc3)CC2)c([N+](=O)[O-])c1 10 µM [inhibitor, partial curve, poor fit]
CCCn1c(Nc2ccccc2C)nc2ccccc21 11.2 µM [inhibitor, partial curve, poor fit]
O=C1C(=C2CCCCC2)SC(=S)N1Cc1ccco1 7.08 µM [inhibitor, partial curve, poor fit]
O=C(NC1CC1(c1ccccc1)c1ccccc1)c1ccccc1 (stereo unspecified) 11.2 µM [inhibitor, partial curve, poor fit]
Cc1cccc(N2CCN(C3=NC(=O)C(Cc4ccccc4)S3)CC2)c1 (stereo unspecified) 28.2 µM [inhibitor, single point]
CN(C)CCC(c1ccc(Cl)cc1)c1ccccn1 (stereo unspecified) 10 µM [inhibitor, single point]
O=C(NCCc1ccc(Cl)cc1)c1ccc2ccccc2n1 31.6 µM [inhibitor, single point]
Cc1ccc(OCCC(=O)Nc2ccc(C)c(S(=O)(=O)N3CCOCC3)c2)cc1 28.2 µM [inhibitor, single point]
CCOc1cc(S(=O)(=O)N2CCC(Cc3ccccc3)CC2)c(OCC)cc1-n1cnnn1 12.6 µM [inhibitor, single point]
CC1CC(C)CN(C(=O)Cn2c(-c3nonc3N)nc3ccccc32)C1 (stereo unspecified) 22.4 µM [inhibitor, partial curve, poor fit]
COc1ccc(CNc2nc(-c3ccc(Cl)cc3)cc(C(F)(F)F)n2)cc1 12.6 µM [inhibitor, partial curve, poor fit]
O=C(Cn1cc(C(=O)C2CC2)c2ccccc21)NCc1ccccc1 28.2 µM [inhibitor, single point]
C=CCn1c(CSCc2ccc(C)cc2)nnc1SCC(=O)NCc1ccccc1 10 µM [inhibitor, partial curve, poor fit]
O=C(CN(c1cccc([N+](=O)[O-])c1)S(=O)(=O)c1ccccc1)N(Cc1ccccc1)Cc1ccccc1 28.2 µM [inhibitor, single point]
Cc1ccc(C2CC(C(F)F)n3ncc(C(=O)Nc4c(C)nn(Cc5c(F)cccc5Cl)c4C)c3N2)cc1 (stereo unspecified) 28.2 µM [inhibitor, single point]
COc1ccccc1NC(=O)Nc1nc(CC(=O)Nc2ccc(F)c(F)c2)cs1 7.08 µM [inhibitor, partial curve, poor fit]
Cc1nc2sccn2c(=O)c1S(=O)(=O)N1CCN(c2cccc(C(F)(F)F)c2)CC1 12.6 µM [inhibitor, single point]
COc1ccc(/C=C2\SC(=S)N(NS(=O)(=O)c3ccccc3)C2=O)c(OC)c1 3.98 µM [inhibitor, full curve, poor fit]
O=C(Nc1ccc(F)cc1)NC1CCN(Cc2nnnn2Cc2ccco2)CC1 31.6 µM [inhibitor, single point]
CC(=O)c1ccccc1NC(=O)C1CCCN(C(=O)c2ccc(Cl)cc2)C1 (stereo unspecified) 28.2 µM [inhibitor, single point]
CCN(CC)S(=O)(=O)c1cc(NS(=O)(=O)c2ccccc2)ccc1C 5.62 µM [inhibitor, full curve, poor fit]
CCCCn1c(CCCNC(=O)c2cccc(C)c2)nc2ccccc21 3.98 µM [inhibitor, full curve]

Activity change, negative = inhibition, inactive:
CCc1ccccc1NC(=O)c1cc2nc(-c3ccc(Br)cc3)cc(C(F)(F)F)n2n1 6%
CCN(CC)C(=O)c1oc2ccc(S(=O)(=O)N3CCCCCC3)cc2c1C -5.87%
Cc1ccc(-n2c(CCC(=O)O)ccc2-c2cccs2)cc1Cl -9.82%
Fc1ccc(CNn2cnnc2SCc2ccc(F)cc2)cc1 -5.27%
CCOc1ccc2c(c1)c(=O)c(C(=O)c1ccc(CC)cc1)cn2CC(=O)Nc1cccc(Cl)c1 2.82%
Cc1cc(C)c(Cn2c(=O)n(CCC(=O)NCc3ccc4c(c3)OCO4)c(=O)c3ccccc32)c(C)c1 5.08%
Cc1onc(-c2ccccc2Cl)c1C(=O)NC(C)c1ccccc1 (stereo unspecified) -15.4%
